Test results reported in paper doi:10.1101/2025.05.13.653810, “Spatial control of secretory vesicle targeting by the Ync13–Rga7–Rng10 complex during cytokinesis” (bioRxiv, 2025).
Results are given in words; binding and its absence hold for the method and conditions named. Binding seen in cells or lysates may run through a third protein. Some results given as binding are weak or reduced against the parent protein; the word gives no strength. Tags and fused reporters may be left off the sequences shown.

Sequences of proteins named here, by UniProt entry; tags and fusion partners are left off.
UniProt O74475: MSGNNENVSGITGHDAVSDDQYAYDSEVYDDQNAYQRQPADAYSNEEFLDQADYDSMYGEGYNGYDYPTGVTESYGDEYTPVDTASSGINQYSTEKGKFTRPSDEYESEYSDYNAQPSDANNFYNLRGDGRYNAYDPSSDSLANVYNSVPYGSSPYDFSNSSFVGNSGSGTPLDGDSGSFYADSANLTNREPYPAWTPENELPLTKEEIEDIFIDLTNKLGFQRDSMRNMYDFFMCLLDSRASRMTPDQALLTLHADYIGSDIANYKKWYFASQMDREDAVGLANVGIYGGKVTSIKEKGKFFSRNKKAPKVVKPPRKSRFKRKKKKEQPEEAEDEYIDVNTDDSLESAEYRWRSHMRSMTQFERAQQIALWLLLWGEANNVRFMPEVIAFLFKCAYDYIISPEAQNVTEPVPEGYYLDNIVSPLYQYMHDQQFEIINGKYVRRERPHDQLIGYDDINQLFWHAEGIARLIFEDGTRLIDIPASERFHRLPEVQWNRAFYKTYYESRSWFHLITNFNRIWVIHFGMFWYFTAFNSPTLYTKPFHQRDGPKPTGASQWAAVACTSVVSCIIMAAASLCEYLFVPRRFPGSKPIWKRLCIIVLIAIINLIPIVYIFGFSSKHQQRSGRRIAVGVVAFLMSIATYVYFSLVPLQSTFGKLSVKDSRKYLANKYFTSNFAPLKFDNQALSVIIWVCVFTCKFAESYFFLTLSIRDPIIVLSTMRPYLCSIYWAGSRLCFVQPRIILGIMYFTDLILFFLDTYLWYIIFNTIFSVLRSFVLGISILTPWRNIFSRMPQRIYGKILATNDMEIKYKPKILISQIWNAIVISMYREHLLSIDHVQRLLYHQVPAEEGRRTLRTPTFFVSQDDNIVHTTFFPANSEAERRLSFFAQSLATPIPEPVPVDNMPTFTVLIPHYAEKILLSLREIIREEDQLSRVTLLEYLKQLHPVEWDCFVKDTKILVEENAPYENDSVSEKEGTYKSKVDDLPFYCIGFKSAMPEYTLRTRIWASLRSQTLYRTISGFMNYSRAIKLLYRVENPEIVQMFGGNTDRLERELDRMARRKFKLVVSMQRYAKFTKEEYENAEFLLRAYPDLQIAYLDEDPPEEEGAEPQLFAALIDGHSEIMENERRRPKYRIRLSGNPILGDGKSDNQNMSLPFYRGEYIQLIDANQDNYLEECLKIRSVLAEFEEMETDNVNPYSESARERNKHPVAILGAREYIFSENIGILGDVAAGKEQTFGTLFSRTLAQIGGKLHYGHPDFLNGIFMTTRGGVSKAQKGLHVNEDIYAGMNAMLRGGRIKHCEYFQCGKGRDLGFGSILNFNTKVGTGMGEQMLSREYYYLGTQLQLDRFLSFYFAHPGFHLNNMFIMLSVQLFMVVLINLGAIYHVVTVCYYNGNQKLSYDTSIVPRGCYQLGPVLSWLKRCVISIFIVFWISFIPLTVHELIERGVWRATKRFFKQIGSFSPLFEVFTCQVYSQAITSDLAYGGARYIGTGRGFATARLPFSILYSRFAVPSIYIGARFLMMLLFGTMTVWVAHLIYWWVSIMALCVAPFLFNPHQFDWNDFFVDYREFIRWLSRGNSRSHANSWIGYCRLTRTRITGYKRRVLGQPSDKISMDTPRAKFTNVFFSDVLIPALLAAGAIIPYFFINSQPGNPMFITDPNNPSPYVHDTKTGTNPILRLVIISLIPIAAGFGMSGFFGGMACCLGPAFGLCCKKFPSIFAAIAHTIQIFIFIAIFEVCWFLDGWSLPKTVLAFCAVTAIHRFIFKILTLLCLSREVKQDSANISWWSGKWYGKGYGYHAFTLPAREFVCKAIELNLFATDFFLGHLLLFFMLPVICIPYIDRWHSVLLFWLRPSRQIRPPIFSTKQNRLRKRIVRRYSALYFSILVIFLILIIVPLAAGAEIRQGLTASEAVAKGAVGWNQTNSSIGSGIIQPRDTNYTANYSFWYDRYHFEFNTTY

T1: Rga7-mEGFP (S. pombe) (UniProt O94466)
T1 sequence: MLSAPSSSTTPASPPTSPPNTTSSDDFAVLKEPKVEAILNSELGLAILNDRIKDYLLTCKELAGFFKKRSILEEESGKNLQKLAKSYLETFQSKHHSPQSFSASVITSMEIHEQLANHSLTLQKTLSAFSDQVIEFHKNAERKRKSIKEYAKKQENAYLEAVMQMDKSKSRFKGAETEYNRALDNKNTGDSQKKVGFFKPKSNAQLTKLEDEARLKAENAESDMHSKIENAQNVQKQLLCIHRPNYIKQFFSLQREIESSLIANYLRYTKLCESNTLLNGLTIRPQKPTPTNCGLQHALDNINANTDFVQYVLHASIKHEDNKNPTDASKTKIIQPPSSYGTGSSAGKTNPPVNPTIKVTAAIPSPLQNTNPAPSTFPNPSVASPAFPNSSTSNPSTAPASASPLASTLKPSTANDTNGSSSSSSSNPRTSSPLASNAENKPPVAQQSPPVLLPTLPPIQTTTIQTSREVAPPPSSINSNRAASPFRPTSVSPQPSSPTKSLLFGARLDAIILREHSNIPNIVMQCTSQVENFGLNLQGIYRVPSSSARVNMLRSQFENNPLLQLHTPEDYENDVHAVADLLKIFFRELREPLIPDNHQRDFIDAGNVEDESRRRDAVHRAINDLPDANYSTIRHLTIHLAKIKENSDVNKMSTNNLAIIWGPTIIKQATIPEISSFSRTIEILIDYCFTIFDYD

T2: Smi1-mEGFP (S. pombe) (UniProt O14362)
T2 sequence: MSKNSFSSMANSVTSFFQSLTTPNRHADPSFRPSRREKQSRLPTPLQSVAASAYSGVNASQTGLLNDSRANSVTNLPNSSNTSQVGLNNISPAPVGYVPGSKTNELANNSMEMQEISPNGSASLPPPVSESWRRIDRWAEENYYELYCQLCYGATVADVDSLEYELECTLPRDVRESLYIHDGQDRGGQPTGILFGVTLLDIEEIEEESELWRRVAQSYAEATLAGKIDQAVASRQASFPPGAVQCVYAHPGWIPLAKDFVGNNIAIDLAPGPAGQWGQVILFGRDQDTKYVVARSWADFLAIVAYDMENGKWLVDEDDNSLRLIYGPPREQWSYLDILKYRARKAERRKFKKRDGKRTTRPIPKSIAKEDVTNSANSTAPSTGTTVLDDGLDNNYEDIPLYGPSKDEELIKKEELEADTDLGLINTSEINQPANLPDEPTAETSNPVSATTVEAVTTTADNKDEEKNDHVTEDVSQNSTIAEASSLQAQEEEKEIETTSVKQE

T3: Ync13-mECitrine (S. pombe) (UniProt O13683)
T3 sequence: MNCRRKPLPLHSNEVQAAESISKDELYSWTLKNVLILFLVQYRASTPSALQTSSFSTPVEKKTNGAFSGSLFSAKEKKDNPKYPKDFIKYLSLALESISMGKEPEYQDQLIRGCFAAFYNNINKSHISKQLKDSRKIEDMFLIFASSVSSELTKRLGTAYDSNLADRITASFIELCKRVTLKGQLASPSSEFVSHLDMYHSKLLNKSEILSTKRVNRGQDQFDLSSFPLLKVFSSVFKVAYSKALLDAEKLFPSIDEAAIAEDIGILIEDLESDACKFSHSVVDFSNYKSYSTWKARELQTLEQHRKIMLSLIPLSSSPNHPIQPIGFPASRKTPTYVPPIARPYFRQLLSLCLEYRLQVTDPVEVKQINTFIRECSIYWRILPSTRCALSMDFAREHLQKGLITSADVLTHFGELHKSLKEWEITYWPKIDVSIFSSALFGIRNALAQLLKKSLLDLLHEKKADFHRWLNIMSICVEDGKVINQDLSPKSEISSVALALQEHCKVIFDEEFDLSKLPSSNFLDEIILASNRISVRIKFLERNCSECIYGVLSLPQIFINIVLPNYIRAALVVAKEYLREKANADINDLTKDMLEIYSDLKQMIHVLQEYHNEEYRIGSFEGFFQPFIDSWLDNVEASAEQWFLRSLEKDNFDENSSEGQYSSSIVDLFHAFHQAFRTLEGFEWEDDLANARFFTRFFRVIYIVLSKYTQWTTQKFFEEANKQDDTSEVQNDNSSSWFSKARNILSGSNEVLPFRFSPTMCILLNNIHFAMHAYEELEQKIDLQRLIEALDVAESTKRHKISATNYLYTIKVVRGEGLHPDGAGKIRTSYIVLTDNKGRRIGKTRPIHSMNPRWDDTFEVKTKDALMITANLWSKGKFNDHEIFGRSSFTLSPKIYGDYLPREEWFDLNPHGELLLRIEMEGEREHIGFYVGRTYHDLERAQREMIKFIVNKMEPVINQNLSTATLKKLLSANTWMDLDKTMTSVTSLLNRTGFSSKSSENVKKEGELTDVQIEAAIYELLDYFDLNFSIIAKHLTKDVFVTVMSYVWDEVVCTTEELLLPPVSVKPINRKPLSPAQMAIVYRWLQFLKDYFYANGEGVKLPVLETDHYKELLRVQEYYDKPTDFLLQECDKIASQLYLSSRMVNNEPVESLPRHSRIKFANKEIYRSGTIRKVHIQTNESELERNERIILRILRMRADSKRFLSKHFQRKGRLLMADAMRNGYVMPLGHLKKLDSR


How the values were obtained:
Test in all cases: co-IP; S. pombe cell extracts, proteins under native promoters; polyclonal GFP antibody on Dynabeads protein G; IP buffer 50 mM HEPES pH 7.5, 150 mM NaCl, 1 mM EDTA, 0.1% NP-40; 2 h at 4°C; blots with anti-GFP and anti-Myc
Rga7-mEGFP (S. pombe) = biological target: T1, Rga7-mEGFP (S. pombe)
Smi1-mEGFP (S. pombe) = biological target: T2, Smi1-mEGFP (S. pombe)
[1] = biological target: T3, Ync13-mECitrine (S. pombe)
GFP-Bgs4 (S. pombe) = GFP-Bgs4 (S. pombe) (UniProt O74475)

binding (Rga7-mEGFP (S. pombe)) | binding (Smi1-mEGFP (S. pombe)) | binding [1] | binding (GFP-Bgs4 (S. pombe)) | Binder
binds | – | – | – | Smi1–13Myc (protein, UniProt O14362 1-504) MSKNSFSSMANSVTSFFQSLTTPNRHADPSFRPSRREKQSRLPTPLQSVAASAYSGVNASQTGLLNDSRANSVTNLPNSSNTSQVGLNNISPAPVGYVPGSKTNELANNSMEMQEISPNGSASLPPPVSESWRRIDRWAEENYYELYCQLCYGATVADVDSLEYELECTLPRDVRESLYIHDGQDRGGQPTGILFGVTLLDIEEIEEESELWRRVAQSYAEATLAGKIDQAVASRQASFPPGAVQCVYAHPGWIPLAKDFVGNNIAIDLAPGPAGQWGQVILFGRDQDTKYVVARSWADFLAIVAYDMENGKWLVDEDDNSLRLIYGPPREQWSYLDILKYRARKAERRKFKKRDGKRTTRPIPKSIAKEDVTNSANSTAPSTGTTVLDDGLDNNYEDIPLYGPSKDEELIKKEELEADTDLGLINTSEINQPANLPDEPTAETSNPVSATTVEAVTTTADNKDEEKNDHVTEDVSQNSTIAEASSLQAQEEEKEIETTSVKQE
– | binds | binds | binds | Rga7–13Myc (protein, UniProt O94466 1-695) MLSAPSSSTTPASPPTSPPNTTSSDDFAVLKEPKVEAILNSELGLAILNDRIKDYLLTCKELAGFFKKRSILEEESGKNLQKLAKSYLETFQSKHHSPQSFSASVITSMEIHEQLANHSLTLQKTLSAFSDQVIEFHKNAERKRKSIKEYAKKQENAYLEAVMQMDKSKSRFKGAETEYNRALDNKNTGDSQKKVGFFKPKSNAQLTKLEDEARLKAENAESDMHSKIENAQNVQKQLLCIHRPNYIKQFFSLQREIESSLIANYLRYTKLCESNTLLNGLTIRPQKPTPTNCGLQHALDNINANTDFVQYVLHASIKHEDNKNPTDASKTKIIQPPSSYGTGSSAGKTNPPVNPTIKVTAAIPSPLQNTNPAPSTFPNPSVASPAFPNSSTSNPSTAPASASPLASTLKPSTANDTNGSSSSSSSNPRTSSPLASNAENKPPVAQQSPPVLLPTLPPIQTTTIQTSREVAPPPSSINSNRAASPFRPTSVSPQPSSPTKSLLFGARLDAIILREHSNIPNIVMQCTSQVENFGLNLQGIYRVPSSSARVNMLRSQFENNPLLQLHTPEDYENDVHAVADLLKIFFRELREPLIPDNHQRDFIDAGNVEDESRRRDAVHRAINDLPDANYSTIRHLTIHLAKIKENSDVNKMSTNNLAIIWGPTIIKQATIPEISSFSRTIEILIDYCFTIFDYD
